# B1: Human Melanocortin-4 Receptor (MC4R) WT, NanoBiT constructs (MC4R WT-LgBiT; MC4R WT-SmBiT) [human] / Human Gαs-C-SmBiT [human] (parent)
# chain 1: MVNSTHRGMHTSLHLWNRSSYRLHSNASESLGKGYSDGGCYEQLFVSPEVFVTLGVISLLENILVIVAIAKNKNLHSPMYFFICSLAVADMLVSVSNGSETIVITLLNSTDTDAQSFTVNIDNVIDSVICSSLLASICSLLSIAVDRYFTIFYALQYHNIMTVKRVGIIISCIWAACTVSGILFIIYSDSSAVIICLITMFFTMLALMASLYVHMFLMARLHIKRIAVLPGTGAIRQGANMKGAITLTILIGVFVVCWAPFFLHLIFYISCPQNPYCVCFMSHFNLYLILIMCNSIIDPLIYALRSQELRKTFKEIICCYPLGGLCDLSSRY
# chain 2: MGCLGNSKTEDQRNEEKAQREANKKIEKQLQKDKQVYRATHRLLLLGAGESGKSTIVKQMRILHVNGFNGEGGEEDPQAARSNSDGEKATKVQDIKNNLKEAIETIVAAMSNLVPPVELANPENQFRVDYILSVMNVPDFDFPPEFYEHAKALWEDEGVRACYERSNEYQLIDCAQYFLDKIDVIKQADYVPSDQDLLRCRVLTSGIFETKFQVDKVNFHMFDVGGQRDERRKWIQCFNDVTAIIFVVASSSYNMVIREDNQTNRLQEALNLFKSIWNNRWLRTISVILFLNKQDLLAEKVLAGKSKIEDYFPEFARYTTPEDATPEPGEDPRVTRAKYFIRDEFLRISTASGDGRHYCYPHFTCAVDTENIRRVFNDCRDIIQRMHLRQYELL
# B2: Human Melanocortin-4 Receptor (MC4R) WT, NanoBiT constructs (MC4R WT-LgBiT; MC4R WT-SmBiT) [human] / Human N-SmBiT-β-arrestin-1 [human] (parent)
# chain 1: B1 chain 1
# chain 2: MGDKGTRVFKKASPNGKLTVYLGKRDFVDHIDLVDPVDGVVLVDPEYLKERRVYVTLTCAFRYGREDLDVLGLTFRKDLFVANVQSFPPAPEDKKPLTRLQERLIKKLGEHAYPFTFEIPPNLPCSVTLQPGPEDTGKACGVDYEVKAFCAENLEEKIHKRNSVRLVIRKVQYAPERPGPQPTAETTRQFLMSDKPLHLEASLDKEIYYHGEPISVNVHVTNNTNKTVKKIKISVRQYADICLFNTAQYKCPVAMEEADDTVAPSSTFCKVYTLTPFLANNREKRGLALDGKLKHEDTNLASSTLLREGANREILGIIVSYKVKVKLVVSRGGLLGDLASSDVAVELPFTLMHPKPKEEPPHREVPENETPVDTNLIELDTNDDDIVFEDFARQRLKGMKDDKEEEEDGTGSPQLNNR
# B3: Human Melanocortin-4 Receptor (MC4R) WT, NanoBiT constructs (MC4R WT-LgBiT; MC4R WT-SmBiT) [human] / Human Melanocortin-4 Receptor (MC4R) WT, NanoBiT constructs (MC4R WT-LgBiT; MC4R WT-SmBiT) [human] (parent)
# chain 1: B1 chain 1
# chain 2: B1 chain 1
# Variants of: B1
# Test: NanoBiT enzyme complementation assay
# Settings: with Human Gαs-C-SmBiT [human]; read off a plot
row,screen value (loge(mutant/WT)),Variant
1,-0.05,chain 1 I289L
2,-0.4,chain 1 I186V
3,0.9,chain 1 S19G

# Variants of: B2
# Test: NanoBiT protein:protein interaction assay
# Settings: with Human N-SmBiT-β-arrestin-1 [human]; read off a plot
row,Variant,screen value (loge(mutant/WT))
1,chain 1 R236C,-0.7
2,chain 1 C326R,-0.8
3,chain 1 N240S,0.6
4,chain 1 M200V,-0.8
5,chain 1 G34A,-0.1
6,chain 1 L304F,0.25
7,chain 1 R305S,-0.1
8,chain 1 I289L,0.4
9,chain 1 I186V,-0.1
10,chain 1 G231S,-0.45
11,chain 1 G238D,0.3
12,chain 1 L325F,-0.9
13,chain 1 I251L,0.45

# Continued, values first:
row,screen value (loge(mutant/WT)),Variant
1,1.5,chain 1 V103I
2,0.05,chain 1 S19G
3,0.7,chain 1 T11A
4,-0.25,chain 1 T112M
5,0.25,chain 1 S30F
6,0.5,chain 1 S191T
7,0.35,chain 1 T53I
8,-0.45,chain 1 T232S
9,-1.1,chain 1 S295P

# Variants of: B3
# Test: NanoBiT protein:protein interaction assay
# Settings: with Human Melanocortin-4 Receptor (MC4R) WT, read off a plot
row,Variant,screen value (loge(mutant/WT))
1,chain 1 I186V,-0.5
2,chain 1 M200V,-1.4
3,chain 1 G238D,-0.1
4,chain 1 N240S,0.15
5,chain 1 G34A,-0.7
6,chain 1 G231S,0
7,chain 1 R305S,-0.65
8,chain 1 R236C,-1.3
9,chain 1 C326R,-0.8
10,chain 1 I251L,-0.4
11,chain 1 L325F,-0.8
12,chain 1 L304F,0.2
13,chain 1 I289L,-0.15

# Continued, values first:
row,screen value (loge(mutant/WT)),Variant
1,0.05,chain 1 V103I
2,-0.6,chain 1 T53I
3,-0.75,chain 1 T232S
4,-0.85,chain 1 S295P
5,-0.55,chain 1 S19G
6,-1.4,chain 1 T112M
7,-0.55,chain 1 S191T
8,-0.3,chain 1 T11A
9,-0.5,chain 1 S30F

# From paper PMC7994375
